{"source": "the RNAGym collection of RNA variant scans (doi:10.1093/nar/gkz1192)", "parents": {"B1": {"name": "CPEB3 Ribozyme (parent)", "chain": "UAACAGGGGGCCACAGCAGAAGCGUUCACGUCGCAGCCCCUGUCAGAUUCUGGUGAAUCUGCGAAUUCUGCUGUAUAUCUC"}}, "note": "Read counts are not given, so values of variants with three or more changes are uncertain.", "data": [{"variants_of": "B1", "experiment": "self-cleavage, relative activity (ratio to wild type); higher = more cleavage; in vitro, sequencing", "procedure,_shortened": "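Relative activity compares each variant's cleaved/total read fraction with that of the unmutated ribozyme. To get these fractions, barcoded CPEB3 ribozyme libraries from rounds of error-prone PCR were transcribed with T7 RNA polymerase for 5 hours at 37°C and then given 15 min of DNase I treatment before EDTA was added. The RNAs were reverse transcribed with template switching and sequenced on Illumina, and DNA sequencing linked barcodes to variants. A minimum of 5 reads applied, and three batches were averaged.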", "values": [{"variant": "UAACAGGGGGCCACAGCAGAAGCGUUCACGUCGCAGCCCCUGACAGAUUCUGGUGAAUCUGCGAAUUCUGUUGUAUUUCUC", "note": "[U43A C71U A77U]", "self-cleavage": 0.66}, {"variant": "UAACAGGGGGCCACAGCAGAAGCGUUCACGUCGCAGCCCCUGACAGACUCUGGUUAAUCUGCGAAUUCAGCCGUAUAUCUC", "note": "[U43A U48C G55U U69A U72C]", "self-cleavage": 0.2}, {"variant": "UAACAGGGGGCCACAGCAGAAGCGUUCACGUCGCAGCCCCUGACAGAUUCUGGUGAAUCUGCCAAUUCUGCUGUAUAGCUC", "note": "[U43A G63C U78G]", "self-cleavage": 1.15}, {"variant": "UAACAGGGGGCCACAGCAGAAGCGUUCACGUCGCAGCCCCUGACAGAUUCUGGUGUAUCCGCGGAUUCUGCUGUAUAUCUC", "note": "[U43A A56U U60C A64G]", "self-cleavage": 0.14}, {"variant": "UAACAGGGGGCCACAGCAGAAGCGUUCACGUCGCAGCCCCUGAAAGAUUCUGGCGAAUCCGCGAAUUCUGCUGUAUAUCUC", "note": "[U43A C44A U54C U60C]", "self-cleavage": 0.22}, {"variant": "UAACAGGGGGCCACAGCAGAAGCGUUCACGUCGCAGCCCCUGACAGAUUCUGGUGUAUCUGCGGGUUCUGCUGUAUAUCUC", "note": "[U43A A56U A64G A65G]", "self-cleavage": 0.09}, {"variant": "UAACAGGGGGCCACAGCAGAAGCGUUCACGUCGCAGCCCCUGACAGAUUCUGGUGAAUCUGCGAAUUUUGCUGAAUAUCUC", "note": "[U43A C68U U74A]", "self-cleavage": 1.25}, {"variant": "UAACAGGGGGCCACAGCAGAAGCGUUCACGUCGCAGCCCCUGACAGAUUCUGGUGAGUCUGCGAGUUCUGCUGUAUAUCAC", "note": "[U43A A57G A65G U80A]", "self-cleavage": 0.69}, {"variant": "UAACAGGGGGCCACAGCAGAAGCGUUCACGUCGCAGCCCCUGAAAGAUUCUGGUGAAUCUGCGAAUUCUGCUGUACAUCAC", "note": "[U43A C44A U76C U80A]", "self-cleavage": 0.78}, {"variant": "UAACAGGGGGCCACAGCAGAAGCGUUCACGUCGCAGCCCCUGACAGAUUCUAGUGAAUCUGCGAAUUCAGCUGUAUAUCAC", "note": "[U43A G52A U69A U80A]", "self-cleavage": 0.47}, {"variant": "UAACAGGGGGCCACAGCAGAAGCGUUCACGUCGCAGCCCCUGACAGAUUUUGAUGAAUCUGCGAAUUCUGCUGUAUAUCUC", "note": "[U43A C50U G53A]", "self-cleavage": 1.36}, {"variant": "UAACAGGGGGCCACAGCAGAAGCGUUCACGUCGCAGCCCCUGACAGAUUCUGGUGAGUCCGCGGACUCUGAUGUAUAUCUC", "note": "[U43A A57G U60C A64G U66C C71A]", "self-cleavage": 0.31}, {"variant": "UAACAGGGGGCCACAGCAGAAGCGUUCACGUCGCAGCCCCUGACAGAUUCUGGUGGAUCUGCGGAUUCAGCUGCAUAUCUC", "note": "[U43A A56G A64G U69A U74C]", "self-cleavage": 0.28}, {"variant": "UAACAGGGGGCCACAGCAGAAGCGUUCACGUCGCAGCCCCUGACAGAAUCCGGUGAAUCUGCGAAUUCUGCUGUAUAUCAC", "note": "[U43A U48A U51C U80A]", "self-cleavage": 0.67}, {"variant": "UAACAGGGGGCCACAGCAGAAGCGUUCACGUCGCAGCCCCUGACAUAUUCUGGUGAAUCUGCGAAUUCUGCCGUAUAUCUC", "note": "[U43A G46U U72C]", "self-cleavage": 0.36}, {"variant": "UAACAGGGGGCCACAGCAGAAGCGUUCACGUCGCAGCCCCUGACAAAUUCUGGUGAAUCUGUGAAUUCUGCUGUAUAUCUC", "note": "[U43A G46A C62U]", "self-cleavage": 0.17}, {"variant": "UAACAGGGGGCCACAGCAGAAGCGUUCACGUCGCAGCCCCUGACAGAUUCUGGUGUAUCUGCGAACUCUGCCGUAUAUCUC", "note": "[U43A A56U U66C U72C]", "self-cleavage": 0.27}, {"variant": "UAACAGGGGGCCACAGCAGAAGCGUUCACGUCGCAGCCCCUGACACAUUCUGGUGAAUCUGCGAAUUCUGCAGUACAUCUC", "note": "[U43A G46C U72A U76C]", "self-cleavage": 0.43}, {"variant": "UAACAGGGGGCCACAGCAGAAGCGUUCACGUCGCAGCCCCUGACAGAUUCUGGUGUAUCCGCGAAUUCUGCUGUAUAUCUC", "note": "[U43A A56U U60C]", "self-cleavage": 0.39}, {"variant": "UAACAGGGGGCCACAGCAGAAGCGUUCACGUCGCAGCCCCUGACAGAUUCUUGUGAAUCUGCGAAUUCCGCUGUAUAUCUC", "note": "[U43A G52U U69C]", "self-cleavage": 0.74}, {"variant": "UAACAGGGGGCCACAGCAGAAGCGUUCACGUCGCAGCCCCUGACAGAUUCUGGUGAGUCUGCGAAUACUGCUGUAUUUCUC", "note": "[U43A A57G U67A A77U]", "self-cleavage": 0.92}, {"variant": "UAACAGGGGGCCACAGCAGAAGCGUUCACGUCGCAGCCCCUGACAGAUUCUGGUGAGUCUGCGAAUUCUGCUGUGUACCUC", "note": "[U43A A57G A75G U78C]", "self-cleavage": 0.44}, {"variant": "UAACAGGGGGCCACAGCAGAAGCGUUCACGUCGCAGCCCCUGACAGAUUCUGGUGGAUCUGCGAAAUCCGCUGAAUAUCUC", "note": "[U43A A56G U66A U69C U74A]", "self-cleavage": 0.16}, {"variant": "UAACAGGGGGCCACAGCAGAAGCGUUCACGUCGCAGCCCCUGACAGAUUCUGGUGAAUCUGCGAGCUCUGCUGUAUAUCUC", "note": "[U43A A65G U66C]", "self-cleavage": 0.32}, {"variant": "UAACAGGGGGCCACAGCAGAAGCGUUCACGUCGCAGCCCCUGACAGAUUCUGGUGUAUCUGCGAACUCUGCUGUAUAUCUC", "note": "[U43A A56U U66C]", "self-cleavage": 0.15}, {"variant": "UAACAGGGGGCCACAGCAGAAGCGUUCACGUCGCAGCCCCUGACAGAUUCUGGUGAGUCUGCGAGUUCUGCUGUAUAUCUC", "note": "[U43A A57G A65G]", "self-cleavage": 0.55}, {"variant": "UAACAGGGGGCCACAGCAGAAGCGUUCACGUCGCAGCCCCUGACAGAUUCUGGUGAAUCUGAGCAUUCUGCUGUAUAUCAC", "note": "[U43A C62A A64C U80A]", "self-cleavage": 0.16}, {"variant": "UAACAGGGGGCCACAGCAGAAGCGUUCACGUCGCAGCCCCUGACAGAUUCUGGUGGAUCUGCGAAUCUUGCUGUGUAUCUC", "note": "[U43A A56G U67C C68U A75G]", "self-cleavage": 0.21}, {"variant": "UAACAGGGGGCCACAGCAGAAGCGUUCACGUCGCAGCCCCUGACAGACUCCAGUGAAUCUGCGAGUUCAGCUGUAUAUCUC", "note": "[U43A U48C U51C G52A A65G U69A]", "self-cleavage": 0.32}, {"variant": "UAACAGGGGGCCACAGCAGAAGCGUUCACGUCGCAGCCCCUGACAAAUUCUGGAGAAUCUGCGAAUUCUGCUGUAUAUCUC", "note": "[U43A G46A U54A]", "self-cleavage": 0.18}, {"variant": "UAACAGGGGGCCACAGCAGAAGCGUUCACGUCGCAGCCCCUGACAGAUUCUGGUGAAUCUGUGAAUUUUGCUGCAUAUCUC", "note": "[U43A C62U C68U U74C]", "self-cleavage": 0.22}, {"variant": "UAACAGGGGGCCACAGCAGAAGCGUUCACGUCGCAGCCCCUGACAGAUUCUGCUGAAUCUGCGAAUUCGGCGGUAUAUCUC", "note": "[U43A G53C U69G U72G]", "self-cleavage": 0.3}, {"variant": "UAACAGGGGGCCACAGCAGAAGCGUUCACGUCGCAGCCCCUGAUAGAUUCUAGUGAAUCUGCGAAUUCUGCUGUAUAUCUC", "note": "[U43A C44U G52A]", "self-cleavage": 1.03}, {"variant": "UAACAGGGGGCCACAGCAGAAGCGUUCACGUCGCAGCCCCUGACAGAUUCUGAUGAAUCUGCGAAUUCUGCUGUACAUCUC", "note": "[U43A G53A U76C]", "self-cleavage": 1.11}]}]}
